# Laboratory results published in PubChem BioAssay AID463173 (ICCB-Longwood Screening Facility, Harvard Medical School, 2010).
# Out of some 52,000 compounds screened, about 4,300 (8.3%) were called active. Cut-off read from the data, not from the text of the source: active = survival mostly below about 52% (no sharp cut-off); inactive = mostly above about 56%. The list shows a part of the results.
# System: DeltatarO mutant
# Experiment: S. aureus survival, RN4220 and DeltatarO strains – OD600, teichoic acid synthesis inhibitors, primary screen (AID 463173)
# Conditions: S. aureus RN4220 wild type/DeltatarO growth, OD600, 18 h, active compounds read low, screened at 18.75 µg/mL (by protocol)
row,Structure (SMILES),survival
1,CCSc1ncc(Cl)c(C(=O)N2CCN(c3ccccc3OC)CC2)n1,inactive: 76%
2,CCOCCCNC(=O)c1ccc(-n2c(-c3ccccc3)cc3c2CCCC3)cc1,inactive: 69%
3,O=C(/C=C/c1ccccc1)Nc1cc(-c2nc3cc(Cl)ccc3o2)ccc1Cl,active: 46%
4,Cc1cccc(OCC(=O)Nc2cccc(OCc3cc(=O)n4cccc(C)c4n3)c2)c1,inactive: 109%
5,CN1CCC(N(Cc2ccc3c(c2)OCO3)C(=O)c2cn(Cc3ccccc3)c3ccsc23)CC1,inactive: 110%
6,CC1CCCN(C(=O)c2cc3ccc4cccnc4c3[nH]2)C1 (centres undefined),inactive: 92%
7,CCOc1ccc(N2CC(NC(=O)c3ccco3)CC2=O)cc1 (centres undefined),inactive: 86%
8,Cc1ccc(-n2c(C)cc(C(=O)C(=O)Nc3ccccc3)c2C)c(C)c1,inactive: 91%
9,COc1ccc(CCNC(=O)CCn2c(=O)c3ccccc3n(Cc3ccccc3F)c2=O)cc1OC,active: 93%
10,Cc1cccc(C(=O)OCc2cc(=O)n3ccsc3n2)c1,inactive: 84%
11,COc1ccc(Cn2ccc3nc(C)c(C(=O)Nc4ccc(OC)cc4)cc3c2=O)cc1,inactive: 89%
12,CC(C)(C)c1cc(C(F)(F)F)nc(SCCNC(=O)c2cnn3cccnc23)n1,inactive: 80%
13,COc1ccc(CNC(=O)C2CCN(S(=O)(=O)c3c(C)noc3/C=C/c3ccccc3F)CC2)cc1,inactive: 85%
14,O=C(Cn1ncn2c(cc3sccc32)c1=O)NCCc1ccccc1,inactive: 91%
15,COc1ccc(CCNC(=O)CCc2c(C)c3cc4c(C)c(C)oc4cc3oc2=O)cc1OC,inactive: 103%
16,Cc1ccc2c(=O)cc(C(=O)Nc3ccc(S(=O)(=O)N(C)c4ccccc4)cc3)oc2c1C,active: 50%
17,Cc1ccc(-c2nc3c(c(SCc4ccc(Br)cc4)n2)Cc2c(CO)cnc(C)c2O3)cc1,inactive: 67%
18,O=C(CSc1nc2c([nH]c3ccccc32)c(=O)n1-c1ccc(Cl)cc1)N1CCc2ccccc21,inactive: 67%
19,O=C(Nc1ccccc1)NC1CC2CCC(C1)N2Cc1nnnn1Cc1ccc2c(c1)OCO2 (centres undefined),inactive: 81%
20,CSc1cccc(NC(=O)c2cnn(-c3ccc(F)cc3)c2-n2cccc2)c1,inactive: 84%
21,CCSc1nn(CC(=O)Nc2cccc(CC)c2)c(N)c1S(=O)(=O)c1ccccc1,inactive: 101%
22,COCCCNC(=O)C1CCN(Cc2cc3ccccc3n2Cc2ccccc2C)CC1,inactive: 71%
23,Cc1oc(-c2ccc(Cl)cc2)nc1CN1CCCC(C(=O)NCCc2ccc(Cl)cc2)C1 (centres undefined),inactive: 54%
24,Nc1ncnc2c1c1nc3ccccc3nc1n2CCc1ccccc1,inactive: 88%
